{"source": "PubChem BioAssay AID488969", "about": "(Vanderbilt High Throughput Screening Facility, 2010)", "note": "Whole data set: some 110,000 compounds, median “z-score” near -0.1, cut for the highest 2% near 2. Some of the results follow. Activity calls are given as the source filed them.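 Rule for the calls: active = z-score in the third read window above 3 or below -3; inactive = the rest.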", "data": [{"biological_target": "Metabotropic glutamate receptor 8 (Rattus norvegicus) (UniProt P70579)", "sequence (P70579 whole entry, looked up)": "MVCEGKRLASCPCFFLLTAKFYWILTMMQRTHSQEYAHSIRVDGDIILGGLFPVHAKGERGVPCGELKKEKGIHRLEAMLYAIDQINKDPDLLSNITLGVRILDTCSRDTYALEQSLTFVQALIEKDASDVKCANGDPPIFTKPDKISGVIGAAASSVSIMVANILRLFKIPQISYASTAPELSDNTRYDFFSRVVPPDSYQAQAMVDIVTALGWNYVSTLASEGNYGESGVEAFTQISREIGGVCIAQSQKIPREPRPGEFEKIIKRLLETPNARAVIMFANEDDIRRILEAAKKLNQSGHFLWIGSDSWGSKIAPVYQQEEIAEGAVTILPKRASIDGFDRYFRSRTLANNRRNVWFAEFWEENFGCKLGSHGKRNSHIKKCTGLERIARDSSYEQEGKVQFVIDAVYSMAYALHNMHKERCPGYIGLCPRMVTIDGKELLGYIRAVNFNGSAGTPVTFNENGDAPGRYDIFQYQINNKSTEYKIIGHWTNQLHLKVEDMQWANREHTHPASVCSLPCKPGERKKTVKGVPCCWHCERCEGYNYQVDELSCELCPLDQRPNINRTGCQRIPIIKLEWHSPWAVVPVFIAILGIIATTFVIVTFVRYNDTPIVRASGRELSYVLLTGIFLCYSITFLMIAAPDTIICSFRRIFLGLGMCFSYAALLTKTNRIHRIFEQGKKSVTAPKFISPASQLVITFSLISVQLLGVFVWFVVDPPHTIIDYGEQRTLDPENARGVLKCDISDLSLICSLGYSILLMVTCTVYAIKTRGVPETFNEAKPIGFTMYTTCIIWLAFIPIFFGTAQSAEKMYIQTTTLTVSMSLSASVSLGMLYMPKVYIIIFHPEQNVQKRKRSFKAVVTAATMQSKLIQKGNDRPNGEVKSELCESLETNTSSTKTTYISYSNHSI", "assay": "mGluR8 Gi/Go-coupled signaling modulation – cell-based, rat, thallium flux, HTS, primary screen (AID 488969)", "details": "HEK293 rat mGluR8, GIRK (G protein-gated inwardly rectifying potassium channel) thallium flux, FluoZin2; at 10 µM; stronger effect = higher value; submaximal glutamate (EC20) added with thallium", "values": [{"smiles": "Cc1cc(C)cc(NC2=NCC(=O)N2Cc2ccccc2)c1", "z-score": -0.354}, {"smiles": "CCCCNC(=O)CCCn1c(=S)[nH]c2cc3c(cc2c1=O)OCO3", "z-score": -0.47}, {"smiles": "CCC(Sc1nnnn1-c1ccccc1)C(=O)NC(C)c1ccccc1", "note": "(centres undefined)", "z-score": 0.324}, {"smiles": "CC(C)=CCCC1=CCC2C(=O)NNC(=O)C2C1", "note": "(centres undefined)", "z-score": -0.0401}, {"smiles": "Clc1cccc(CSc2nccn2-c2ccccc2)c1", "z-score": 0.209}, {"smiles": "Cc1ccnc(NS(=O)(=O)c2ccc(NC(=O)C34CC5CC(C)(CC(C)(C5)C3)C4)cc2)n1", "z-score": -0.414}, {"smiles": "CCCCC(=O)NCCc1cc2ccc(OC)cc2[nH]c1=O", "z-score": 0.0337}, {"smiles": "O=C1CN(C(=O)c2ccc(Br)o2)C(c2ccccc2)c2cc(F)ccc2N1", "note": "(centres undefined)", "z-score": -0.455}, {"smiles": "COc1ccc(-c2nnc(-c3cc(OC)c(OC)c(OC)c3)o2)cc1OC", "z-score": 0.337}, {"smiles": "COC(=O)Nc1c(-c2ccccc2)nc2ccccn12", "z-score": -0.126}, {"smiles": "Cc1noc(NS(=O)(=O)c2ccc(NC(=O)c3ccoc3C)cc2)c1C", "z-score": 0.00366}, {"smiles": "CC(NC(=O)CSc1nnc(-c2cc3cc(Cl)ccc3o2)n1C)c1ccccc1", "note": "(centres undefined)", "z-score": -0.119}, {"smiles": "CCCCNC(=S)Nc1ccc2nc3n(c(=O)c2c1)CCCCC3", "z-score": -0.743}, {"smiles": "C=CCSc1n[nH]c(-c2ccc(OC)cc2)n1", "z-score": -0.102}, {"smiles": "Cc1ccc(-c2nnn(CC(=O)NC3CCN(Cc4ccccc4)CC3)n2)cc1", "z-score": 0.381}, {"smiles": "CC(Oc1ccc(Cl)cc1Cl)C(=O)NCCC1=CCCCC1", "note": "(centres undefined)", "z-score": -0.115}, {"smiles": "Cc1ccc(C)c(OCC(=O)Nn2c(C)nc3ccccc3c2=O)c1", "z-score": -0.556}, {"smiles": "O=C(COc1nnnc2ccccc12)N1CCCc2ccccc21", "z-score": -0.0964}, {"smiles": "N#Cc1c(N)n[nH]c1-c1cc2c([nH]1)CCCC2", "z-score": -0.142}, {"smiles": "O=C(NCCCN1CCOCC1)c1ccccc1NS(=O)(=O)c1cc([N+](=O)[O-])ccc1Cl", "z-score": 0.0883}, {"smiles": "Cc1cc(NCCO)nc(-n2nc(C)cc2C)n1", "z-score": -0.0242}, {"smiles": "COc1ccccc1NC(=O)CSc1nc2nc(C)cc(C)c2c(=O)[nH]1", "z-score": 0.244}, {"smiles": "Oc1ccc(O)c(-c2cnns2)c1", "z-score": 0.00638}, {"smiles": "CCCOc1ccc(-c2nc(C#N)c(N3CCC(C(N)=O)CC3)o2)cc1", "z-score": -0.0387}, {"smiles": "COc1cccc(Nc2nc(N)nc(-c3oc4ccccc4c3C)n2)c1", "z-score": 0.16}, {"smiles": "Cc1nn(C(C)(C)C)c(OC(=O)c2ccc(Br)o2)c1Sc1ccccc1", "z-score": -0.354}, {"smiles": "O=C(Nc1ccccc1)N1CCC(n2c(=O)[nH]c3ccccc32)CC1", "z-score": 0.118}, {"smiles": "Cc1cccc(C)c1NC(=O)C1(NC(=O)Cn2cccc([N+](=O)[O-])c2=O)CCCCC1", "z-score": 0.0735}, {"smiles": "Cc1onc(-c2ccccc2Cl)c1C(=O)NCc1ccccn1", "z-score": -0.15}, {"smiles": "COc1ccc(C(=O)Nc2nc3ccccc3c(=O)[nH]2)cc1", "z-score": 0.346}, {"smiles": "OCCNCc1ccc(-c2ccccc2)cc1", "z-score": 0.13}, {"smiles": "COc1cc2c(cc1OC)-c1nnc(-c3cccs3)n1C(C)(C)C2", "z-score": 0.401}, {"smiles": "CC(=O)NCCc1csc(-c2ccccc2)n1", "z-score": -0.00683}, {"smiles": "CCc1ccc2c(c1)[C@H]1OCC[C@H]1[C@@H](c1cccs1)N2", "z-score": -0.344}, {"smiles": "CCC1CCCCN1C(=O)Cn1c(C(=O)OC)cc2sc(Cl)cc21", "note": "(centres undefined)", "z-score": -0.00236}, {"smiles": "CS(=O)(=O)N(CC(=O)N/N=C/c1cc([N+](=O)[O-])ccc1Cl)c1ccccc1", "z-score": -0.095}, {"smiles": "c1ccc(C2CC3CC(c4ccccc4)N2O3)cc1", "note": "(centres undefined)", "z-score": -0.18}, {"smiles": "Cc1cc(C)c2c(n1)nn1c(NCCCN3CCOCC3)cc(C)nc21", "z-score": 0.0454}, {"smiles": "CC1CCCN(C(=O)Cn2c(-c3nonc3N)nc3ccccc32)C1", "note": "(centres undefined)", "z-score": -1.12}, {"smiles": "COc1ccc(NC(=O)/C(=C/c2cccnc2)NC(=O)c2cccs2)cc1", "z-score": 0.00768}, {"smiles": "O=C(CSC1=NCCS1)N1CCc2ccccc21", "z-score": 0.0931}, {"smiles": "CC(C)(C)CC(=O)Nc1nn[nH]n1", "z-score": -0.0556}, {"smiles": "Cc1cc(C(F)(F)F)nn1CC(=O)N1CCCC1", "z-score": -0.211}, {"smiles": "O=C(Nc1nnc(CC(=O)N2CCOCC2)s1)c1cccs1", "z-score": 0.333}, {"smiles": "CCN(CC)c1ccc(NC(=O)c2cccnc2)cc1", "z-score": -0.663}, {"smiles": "O=C(/C=C/c1ccccc1)NC(NC(=S)Nc1cccc(O)c1)C(Cl)(Cl)Cl", "note": "(centres undefined)", "z-score": 2.09}, {"smiles": "COc1ccc(/C=C/C(=O)c2c(O)cc(C)oc2=O)c(OC)c1", "z-score": -0.284}, {"smiles": "CC(C)c1ccccc1OCCNS(C)(=O)=O", "z-score": -0.482}, {"smiles": "CC(C)CN(CC(C)C)C(=S)NC1CCCCC1", "z-score": -0.249}, {"smiles": "COc1cc(OC)c(OC)cc1CN(C)C(c1ccccc1)c1nnnn1-c1ccccc1C", "note": "(centres undefined)", "z-score": 0.0196}, {"smiles": "CC1SC(C)C(=O)N(CC(=O)Nc2ccc3c(c2)OCO3)C1=O", "note": "(centres undefined)", "z-score": -0.17}, {"smiles": "Nc1ccc(S(=O)(=O)N2CCCC2)cc1", "z-score": -0.115}, {"smiles": "Cc1c(Cc2ccccc2)sc(NC(=O)c2ccco2)c1C(N)=O", "z-score": -1.42}, {"smiles": "COc1ccc(C(=O)NN(C)c2nc(-c3ccccc3)nnc2C(F)(F)F)cc1", "z-score": 0.451}, {"smiles": "Cc1cc(Nc2ccc(N3CCC(C)CC3)cc2)n2ncnc2n1", "z-score": -0.195}, {"smiles": "CC1=C(C(=O)N(C)C)C(c2cccs2)NC(=O)N1", "note": "(centres undefined)", "z-score": 0.0593}, {"smiles": "O=C(Cc1ccc(Cl)cc1)N1CCN(C(=O)c2ccco2)CC1", "z-score": -1}, {"smiles": "O/N=C(/Cc1ccccn1)c1ccccc1", "z-score": -0.199}, {"smiles": "CC1(C)CC(=O)C2=C(C1)OC(N)=C(C#N)C2c1cn(-c2ccccc2)nc1-c1ccccc1", "note": "(centres undefined)", "z-score": -0.434}, {"smiles": "O=C(Nc1nc(=O)c2ccccc2s1)c1ccccc1", "z-score": "active: 14.9"}, {"smiles": "COc1ccc(C(=O)NNC(=O)CN2CCC(n3nnc4cc(C)ccc43)CC2)cc1", "z-score": 0.234}, {"smiles": "Nc1ccc(CC2SC(=O)NC2=O)cc1", "note": "(centres undefined)", "z-score": 0.222}, {"smiles": "CCSc1ncnc2c1sc1nc(-c3ccco3)c3c(c12)CC(C)(C)OC3", "z-score": -0.162}, {"smiles": "CCCCCn1c(NCc2ccco2)nc2ccccc21", "z-score": 0.413}, {"smiles": "O=[N+]([O-])c1ccc(O)c(/C=N/Nc2ccccn2)c1", "z-score": -0.118}, {"smiles": "O=C(Nc1cccc(Br)c1)c1ccn[nH]1", "z-score": -0.674}, {"smiles": "CCCCC(CC)C(=O)NCc1ccc(F)cc1", "note": "(centres undefined)", "z-score": -1.43}, {"smiles": "CCOC(=O)CCCCC(=O)c1[nH]c(=O)[nH]c1CSCCO", "z-score": 0.565}, {"smiles": "CCOC(=O)c1[nH]c2ccccc2c1N=CN(CC)CC", "z-score": -0.194}, {"smiles": "CCC(C)c1ccc(NC(=O)COc2c(F)c(F)c(C(F)(F)F)c(F)c2F)cc1", "note": "(centres undefined)", "z-score": -0.142}, {"smiles": "COc1ccc(N(CC(=O)Nc2ccc(F)c(Cl)c2)S(=O)(=O)c2c(C)noc2C)cc1", "z-score": -0.0121}, {"smiles": "CCOC(=O)Nc1ccc(S(=O)(=O)Nc2cc(C)on2)cc1", "z-score": -0.269}, {"smiles": "O=C(Oc1ccc(Cl)cc1)c1ccc(COC(=O)c2cnccn2)cc1", "z-score": 0.0127}, {"smiles": "CCOC(=O)C(/C(N)=N/C(=O)Nc1ccccc1)=C(\\C)O", "z-score": -0.242}]}]}
